In the RNAGym collection of RNA variant scans (doi:10.7554/elife.90254):
The source gives no read counts; variants with many changes may rest on few reads.

B1: LINE1-mini (parent)
chain: GGCAGAGCUCAACACAGCGUGGCAAAGUGGCUGUGGCUAGACUGCC

Variants of: B1
Assay: self-cleavage, relative activity (ratio to wild type); higher = more cleavage; in vitro, sequencing; the parent is a self-cleaving ribozyme

Which self-cleavage does the source give for GGCAGAGAUCUACACAGCGUGGCAAAGUGGCUGUGGCUAGAAGGCC [C8A A11U C42A U43G] here?
The self-cleavage was 0.01.

For GGCAGAUCCCAACACAGCGUGGCAAAGUGGCUGCGGCUGGACUGCC [G7U U9C U34C A39G], which self-cleavage is on record?
The self-cleavage was 0.

For GGCAGAGAUCCACACAGCGUGGCAAAGUGGCUAUGGCUAGACUGCC [C8A A11C G33A], which self-cleavage is on record?
Its self-cleavage is 0.02.

For GGCAGAUCUCAACACAGCGAGGCAAAGAGGCUCUGGCUAGACUGGC [G7U U20A U28A G33C C45G], which self-cleavage is on record?
The self-cleavage was 0.01.

For GGCAGAGAUCUAAACAGCGUGGCAAAGUGGCUGUUGGUAGACCGCC [C8A A11U C13A G35U C37G U43C], which self-cleavage is on record?
The self-cleavage was 0.04.

For GGCAGAGAUCCUCACAGCGUGGCAAAGUGGCUGUGGCUAGACUGCC [C8A A11C A12U], which self-cleavage is on record?
Its self-cleavage is 0.03.

With GGCAGAGAUCACCACACCGGGGCAAAGUGGCUGUGGCUAGACUGCC [C8A A12C G17C U20G] as the variant, how does the self-cleavage read?
Its self-cleavage is 0.03.

With GGCAGAGAUCACCUCAACGUGGCAAAGUGGCUGUGGCUACACUGUC [C8A A12C A14U G17A G40C C45U] as the variant, how does the self-cleavage read?
Its self-cleavage is 0.02.

For GGCAGAUCACAACACGGCGUGGCAAAGUGACUGUGGCUAGACUGCC [G7U U9A A16G G30A], which self-cleavage is on record?
Its self-cleavage is 0.03.

With GGCAGAGAUCCACACAGCGUGGCAAAGUGACUGUGGCUAGACUGCC [C8A A11C G30A] as the variant, how does the self-cleavage read?
Its self-cleavage is 0.03.

For GGCAGAUCUCAACACAGCGGGGCGAAGUGGCUGUGUCUAGACUGCC [G7U U20G A24G G36U], which self-cleavage is on record?
Its self-cleavage is 0.04.

For GGCAGAGAUCUACAAAGCGUGGCAAAGUGGCUGUGGCAAGACUGCC [C8A A11U C15A U38A], which self-cleavage is on record?
Its self-cleavage is 0.03.

Which self-cleavage does the source give for GGCAGAGAUCGACACAGCGUGGCAAAGUGGCCGUGGCUACACUGCC [C8A A11G U32C G40C] here?
The self-cleavage was 0.

With GGCAGAUCUCAACACAGCGUGGCAAAGUGGCUGUGGCGAGAGUGCC [G7U U38G C42G] as the variant, how does the self-cleavage read?
The self-cleavage was 0.01.

Which self-cleavage does the source give for GGCAGAUCACUACACCGCGUGGCAAAGUGGCUGUGGCUAGACUGCC [G7U U9A A11U A16C] here?
Its self-cleavage is 0.04.

For GGCAGAUCACAACACUGUGUGGACAAGUGGCUGUGGCUAGACUGCC [G7U U9A A16U C18U C23A A24C], which self-cleavage is on record?
The self-cleavage was 0.04.

With GGCAGAGAUCACCACAGCGUGGCAAAGUGGCUGUAGCUAGACUGCC [C8A A12C G35A] as the variant, how does the self-cleavage read?
The self-cleavage was 0.1.

With GGCAGAUCACAACACAGCGUGGCAAAGUGGCUGUAGCCAUACUGCC [G7U U9A G35A U38C G40U] as the variant, how does the self-cleavage read?
Its self-cleavage is 0.07.

Which self-cleavage does the source give for GGCAGAUCUCAACACAGCGUGGCAAAGAGGCUGUAGCUAGACUGCC [G7U U28A G35A] here?
Its self-cleavage is 0.06.

For GGCAGAUCCUAACACUGCGUGGCAAAGUGGCUGUGGCUAGACUGCC [G7U U9C C10U A16U], which self-cleavage is on record?
Its self-cleavage is 0.02.

For GGCAGAUCUCAACACAGCGAGGCAAAGUGGCUGUGGCUAGACUGCG [G7U U20A C46G], which self-cleavage is on record?
The self-cleavage was 0.05.

With GGCAGAUCUCAACACAGCGUGGCAAAGGGGCUGUGGCUAGAAUGCC [G7U U28G C42A] as the variant, how does the self-cleavage read?
The self-cleavage was 0.02.

For GGCAGAUCCCAACACAGCGUGGCAAAGUGGCUGGGGCUCGACUGCC [G7U U9C U34G A39C], which self-cleavage is on record?
The self-cleavage was 0.07.

For GGCAGAGAUCGACACAGCGGGGCAAAGUGGCUGUGGCUAUACUGCC [C8A A11G U20G G40U], which self-cleavage is on record?
Its self-cleavage is 0.

With GGCAGAGAUCAGCAUAGCGUGGCAAAGUGGCUGUGGCUAGACUGCC [C8A A12G C15U] as the variant, how does the self-cleavage read?
Its self-cleavage is 0.07.

With GGCAGAGAUCGACACAGCGUGGUAAAGUGGCUGUGGCUAGACUGCC [C8A A11G C23U] as the variant, how does the self-cleavage read?
The self-cleavage was 0.38.

Which self-cleavage does the source give for GGCAGAUCACAACAAAGCGUGGCAAAGUGGAUGUGGCUAGACUGCC [G7U U9A C15A C31A] here?
Its self-cleavage is 0.16.

With GGCAGAUCCCAACACAGCGUGGCUAAGUGGCUGUGGGUAGACUACC [G7U U9C A24U C37G G44A] as the variant, how does the self-cleavage read?
Its self-cleavage is 0.02.

For GGCAGAGAUCAGCACAGUGAGGCAAAGUGGCUGUGGCUAGACUGCC [C8A A12G C18U U20A], which self-cleavage is on record?
Its self-cleavage is 0.05.

Which self-cleavage does the source give for GGCAGAGAUCAGCACAGCGUGGCAAAGUGGCUGUGGCUAGACUGUC [C8A A12G C45U] here?
Its self-cleavage is 0.04.

For GGCAGAGAUCAGCACAGCGUGGCAAAUUGGCUGUGGCUAGACUGCC [C8A A12G G27U], which self-cleavage is on record?
Its self-cleavage is 0.03.

With GGCAGAGAUCAGCACAGCGUGGCAAACUGGCUGUGGCUACACUGCC [C8A A12G G27C G40C] as the variant, how does the self-cleavage read?
The self-cleavage was 0.02.

With GGCAGAUCUCAACACAGCGUGGCAAAGUGGCUGUGGCUAUACUGAC [G7U G40U C45A] as the variant, how does the self-cleavage read?
The self-cleavage was 0.1.

With GGCAGAUCUCAACACAGCGUGGCAAAGUGGCUGUGGCUAUACUGUC [G7U G40U C45U] as the variant, how does the self-cleavage read?
The self-cleavage was 0.16.

Which self-cleavage does the source give for GGCAGAGAUCGACACAGCGUGGCACAGGGUUUGUGGCUAGACUGCC [C8A A11G A25C U28G G30U C31U] here?
Its self-cleavage is 0.02.

For GGCAGAGAUCACCACAGCGUGGAAAAGUGGCUGUGGCUAAAAUGCC [C8A A12C C23A G40A C42A], which self-cleavage is on record?
The self-cleavage was 0.04.

With GGCAGAGAUCUUCACAGCGUGGCAAAGUGGCUGUGGCUAGACUGCC [C8A A11U A12U] as the variant, how does the self-cleavage read?
The self-cleavage was 0.01.

For GGCAGAUCCCAACACAGCGUGGCAAAUUAGCUGUGGCUAGACUGCC [G7U U9C G27U G29A], which self-cleavage is on record?
The self-cleavage was 0.01.

With GGCAGAUCUCAACACAGCGAGGCAAAGUGGCUGUGGCUAGAUUGCC [G7U U20A C42U] as the variant, how does the self-cleavage read?
The self-cleavage was 0.02.

For GGCAGAGAUCGACAAAGCGUGGCAAAGUGGCUGUGGUUAGACUGCC [C8A A11G C15A C37U], which self-cleavage is on record?
The self-cleavage was 0.05.

With GGCAGAGAUCGACACAGCGUGGCAGAGUGGCUGUGGCUAAACUGCC [C8A A11G A25G G40A] as the variant, how does the self-cleavage read?
Its self-cleavage is 0.02.

With GGCAGAUCUCAACACAGCGGGGCAAGGUGGAUGUGCCUAGACUGCC [G7U U20G A26G C31A G36C] as the variant, how does the self-cleavage read?
The self-cleavage was 0.01.

With GGCAGAUCUCAACACAGCGAGGCAAAGUGGCUAUUGCUAGACUGCA [G7U U20A G33A G35U C46A] as the variant, how does the self-cleavage read?
The self-cleavage was 0.08.

Which self-cleavage does the source give for GGCAGAUCUCAACACAGCGUGGCAAAGUGGCUGUGGCUAGACGACC [G7U U43G G44A] here?
Its self-cleavage is 0.06.

With GGCAGAUCUCAACACAGCGUGGCAAAGUGGCCAUGGCUAGACUGCC [G7U U32C G33A] as the variant, how does the self-cleavage read?
Its self-cleavage is 0.11.

Which self-cleavage does the source give for GGCAGAUCUCAACACAGCGUGGCAAAGUGGCUGAUGCUAGAGUGCC [G7U U34A G35U C42G] here?
The self-cleavage was 0.03.

For GGCAGAGAUCACCACAGCGUGGCAAAGUGUAUGUGGCUAGACUACC [C8A A12C G30U C31A G44A], which self-cleavage is on record?
Its self-cleavage is 0.03.

For GGCAGAUCACAACACAGCGUGGCAAAGUGGCUGUGGCUAGACUGAC [G7U U9A C45A], which self-cleavage is on record?
The self-cleavage was 0.35.

With GGCAGAUCCCAACACAGCGUGGCAAAGUGGCAGUGGCCAGACUGCC [G7U U9C U32A U38C] as the variant, how does the self-cleavage read?
The self-cleavage was 0.09.

With GGCAGAGAUCCACACAGCGUGGCAAAGUGGCCGUGGCUAGACUGCG [C8A A11C U32C C46G] as the variant, how does the self-cleavage read?
The self-cleavage was 0.

Which self-cleavage does the source give for GGCAGAGAUCACCACAGCGUGGCAAAGUAGCUGUGGCUACACUGCC [C8A A12C G29A G40C] here?
Its self-cleavage is 0.02.

Which self-cleavage does the source give for GGCAGAGAUCAUCACAGCGUGGUAAAGUGGCUGUGGCUAGACUGCC [C8A A12U C23U] here?
The self-cleavage was 0.31.

Which self-cleavage does the source give for GGCAGAUCGCAACACAGCGUGGCAAAGUGGCAGUGGCUAGACAUCC [G7U U9G U32A U43A G44U] here?
Its self-cleavage is 0.03.

With GGCAGAGAUCUACACAGAGUGGCAAUGUGGCUGUGGCGUGACUGCC [C8A A11U C18A A26U U38G A39U] as the variant, how does the self-cleavage read?
Its self-cleavage is 0.

For GGCAGAGAUCCACACAGCGUUAUAAAGUGGCUGUGGCUAGACUGCC [C8A A11C G21U G22A C23U], which self-cleavage is on record?
The self-cleavage was 0.02.

For GGCAGAGAUCAUCACCGCGUGGCAAAGUGGCUGUGGCUAUACUGCC [C8A A12U A16C G40U], which self-cleavage is on record?
The self-cleavage was 0.06.
